Results: the RNAGym collection of RNA variant scans (doi:10.7554/elife.90254)
The source gives no read counts; variants with many changes may rest on few reads.

B1: LINE1-mini (parent)
chain: GGCAGAGCUCAACACAGCGUGGCAAAGUGGCUGUGGCUAGACUGCC

Variants of: B1
Experiment: self-cleavage, relative activity (ratio to wild type); higher = more cleavage; in vitro, sequencing; the parent is a self-cleaving ribozyme
For G1U C13G G17A, the self-cleavage was 0.11. Work on G1U C23U U28C G44A yielded a self-cleavage of 0.07. G1U G5A G19A G21C G27A showed a self-cleavage of 0.13. G2A A4U A6C A11U gave a self-cleavage of 0.06. Variant G1U G2U A4U G29A G30A has a self-cleavage of 0.07. Work on G1U G7U A25U U34C yielded a self-cleavage of 0.07. With G2A A41G U43G the self-cleavage was 0.14. G2A C15G G36U gave a self-cleavage of 0.02. G1U G5U A24U C45A gave a self-cleavage of 0.05. Variant G2A C15G G27A G29C A41U has a self-cleavage of 0.04. For G2A C3A C23U G36C C46G, the self-cleavage was 1.34. Work on G2A C15A G22C C46G yielded a self-cleavage of 0.15. In the case of G1U U20A C31G, the self-cleavage is reported as 0.05. In the case of G2A A4U C10A U34G, the self-cleavage is reported as 0.06. Work on G1U G40A G44U yielded a self-cleavage of 0.06. For G2A C13U C18A U20A C37U, the self-cleavage was 0.05. G2A C3U G7C C23U A25U gave a self-cleavage of 0.22. G1U G30C G40A gave a self-cleavage of 0.02. For G1U U9G A14U G22U A39U, the self-cleavage was 0.01. For G1U G7C C10A, the self-cleavage was 0.07. G2A A6G G30A U32G showed a self-cleavage of 0.26. G1U G5U A6G U20G C37A showed a self-cleavage of 0.05. In the case of G2A C3U C23U U28C U34C C37U, the self-cleavage is reported as 0.54. Variant G2A A6C G7U C10A G17U G27A G30U G36A A39U has a self-cleavage of 0.04. With G1U C15A G21U G27A G36A the self-cleavage was 0.02. Variant G1U C31A G35A G36A C37G has a self-cleavage of 0.02. In the case of G1U G5A C8U A25C U32A C45A, the self-cleavage is reported as 0.16. G1U G7U C15U A16C G33U G35U G40U C42U showed a self-cleavage of 0.09. For G2A A6C A11G C13G G36U, the self-cleavage was 0.02. Variant G1U C31U G40U has a self-cleavage of 0.1. G1U G29C G35C gave a self-cleavage of 0.05. G1U G7C C15G U20C C45A C46A showed a self-cleavage of 0.05. Work on G1U G5A G35U A39C C46G yielded a self-cleavage of 0.06. G2A A6C A12U G17U C42U showed a self-cleavage of 0.14. Variant G2A A24U G29C G33U U34C U38A U43G has a self-cleavage of 0. Work on G2A A14C G22U C23G C37A G44A yielded a self-cleavage of 0.08. In the case of G2A A12G G33A A41C, the self-cleavage is reported as 0.06. For G1U G7C A26C G40A C46A, the self-cleavage was 0.07. For G1U U9G U28A C46A, the self-cleavage was 0.03. Work on G2A A4G C15G G17A A39G G44A yielded a self-cleavage of 0. G1U G19U A26C U43A showed a self-cleavage of 0.02. Work on G2A A4C C23U G27A yielded a self-cleavage of 1.64. G2A A11U C15U A16U showed a self-cleavage of 0.02. In the case of G1U G2U G7C C8A U20C G27C G29A A41C, the self-cleavage is reported as 0.01. For G2A C3A G17C G19C G21A C42A, the self-cleavage was 0.77. With G2A A24U C31A the self-cleavage was 0.18. G1U C15A C46A showed a self-cleavage of 0.08. In the case of G1U G2A C18G A41U, the self-cleavage is reported as 0.15. G1U C18G G21A C46A gave a self-cleavage of 0.14. G2A C10A G29A G33U C37U G44A gave a self-cleavage of 0.01. In the case of G1U G7A U38A U43A, the self-cleavage is reported as 0.01. In the case of G1U C15G G35U, the self-cleavage is reported as 0.01. G1U G2U C37U gave a self-cleavage of 0.03. G2A C8G C23U U32A gave a self-cleavage of 0.02. G2A A4G C10A G27C G30U gave a self-cleavage of 0.03. Work on G1U G2C U38C yielded a self-cleavage of 0.01. G1U G21U C46G showed a self-cleavage of 0.56. In the case of G1U G19U C31A, the self-cleavage is reported as 0.03. In the case of G2A A4G C13A C37A C46G, the self-cleavage is reported as 0.12. Work on G2A C3A G22A C37A yielded a self-cleavage of 1.18. Variant G2A C10G C18U has a self-cleavage of 0.02. For G2A A24C G27U C31G G36U C37A, the self-cleavage was 0.15. Variant G2A A25C A39G U43A has a self-cleavage of 0.08. In the case of G1U C15U C18A G30A G40C, the self-cleavage is reported as 0.01. G1U G5U G22U G27A U38G showed a self-cleavage of 0.01. G2A C13A C23G showed a self-cleavage of 0.13. With G2A C10G C23G A26G C42U the self-cleavage was 0.02. G1U G7A G19A G33A showed a self-cleavage of 0.23. G2A C13A G27U G29A C42A showed a self-cleavage of 0.68. For G2A C10A A41C, the self-cleavage was 0.02. With G2A C8A C15U U20A G29A A39G the self-cleavage was 1.06. G2A A6C A12C C42G showed a self-cleavage of 0.04. In the case of G2A A14G G27C G29A G40A A41U, the self-cleavage is reported as 0.06. G1U G5U A11G showed a self-cleavage of 0.04. For G2A C10A U43G, the self-cleavage was 0.16. G1U C31G C37G U43G gave a self-cleavage of 0. Variant G1U G30U C31A has a self-cleavage of 0.04. Work on G1U G30A C45U yielded a self-cleavage of 0.29. G1U U9C A24G A25C showed a self-cleavage of 0.03. For G1U C13G G17A G29U, the self-cleavage was 0.01. G2A A14C C37A gave a self-cleavage of 0.09. For G1U C15A G17A U20A C23A G35A, the self-cleavage was 0.07. Work on G2A C3A G5U C31A yielded a self-cleavage of 0.4. With G1U G5A C10G A12G G27U U28A the self-cleavage was 0.
